In paper PMC9440930:
No constants are given. Whether binding was seen depends on the method and setting. Binding seen in cells or lysates may run through a third protein. Some entries that bind do so weakly or less than the wild type.

Chains of the proteins cited; added tags and fusions are not shown.
UniProt P09405: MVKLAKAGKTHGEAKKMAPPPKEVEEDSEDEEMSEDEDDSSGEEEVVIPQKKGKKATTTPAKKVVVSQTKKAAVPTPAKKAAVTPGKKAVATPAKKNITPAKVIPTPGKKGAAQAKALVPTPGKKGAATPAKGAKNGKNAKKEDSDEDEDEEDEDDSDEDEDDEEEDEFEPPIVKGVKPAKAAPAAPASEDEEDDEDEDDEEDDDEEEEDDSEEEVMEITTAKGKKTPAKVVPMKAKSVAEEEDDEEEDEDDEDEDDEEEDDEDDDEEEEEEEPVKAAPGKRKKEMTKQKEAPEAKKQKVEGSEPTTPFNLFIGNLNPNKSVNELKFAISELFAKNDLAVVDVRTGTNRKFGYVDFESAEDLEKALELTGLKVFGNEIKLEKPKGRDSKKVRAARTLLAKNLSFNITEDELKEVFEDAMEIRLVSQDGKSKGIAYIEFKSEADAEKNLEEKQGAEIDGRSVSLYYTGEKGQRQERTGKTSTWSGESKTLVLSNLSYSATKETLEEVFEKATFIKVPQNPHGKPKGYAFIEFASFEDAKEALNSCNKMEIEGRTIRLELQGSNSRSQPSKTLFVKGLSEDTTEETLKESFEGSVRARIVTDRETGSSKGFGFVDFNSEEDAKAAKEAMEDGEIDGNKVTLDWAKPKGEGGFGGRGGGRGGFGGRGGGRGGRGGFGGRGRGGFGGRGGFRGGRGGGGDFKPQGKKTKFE
UniProt Q9D753: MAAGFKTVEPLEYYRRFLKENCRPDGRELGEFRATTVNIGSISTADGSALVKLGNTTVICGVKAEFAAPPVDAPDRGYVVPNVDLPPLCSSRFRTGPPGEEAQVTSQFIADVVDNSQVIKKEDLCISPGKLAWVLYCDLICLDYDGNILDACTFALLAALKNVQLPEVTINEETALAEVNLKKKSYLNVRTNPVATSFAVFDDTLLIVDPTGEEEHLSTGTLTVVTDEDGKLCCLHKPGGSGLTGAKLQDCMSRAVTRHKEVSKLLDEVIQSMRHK
UniProt Q9CRA8: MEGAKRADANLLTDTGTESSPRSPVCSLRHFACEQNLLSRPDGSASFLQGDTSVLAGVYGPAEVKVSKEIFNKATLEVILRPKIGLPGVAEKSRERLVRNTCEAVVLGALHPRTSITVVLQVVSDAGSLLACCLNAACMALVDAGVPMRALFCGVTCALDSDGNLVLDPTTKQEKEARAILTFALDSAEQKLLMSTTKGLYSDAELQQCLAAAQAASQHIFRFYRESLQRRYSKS

B1: Rrp6, nucleus-specific exosome component (protein, UniProt P56960 1-887)
chain: MAPPSPREHQSAPATSATKPDAEMVLPGFPDADSFVKFALGSVVAVTKASGGLPQFGDEYDFYRSFPAFQAFCETQGDRLLQCMSRVMQYHGCRSNIKDRSKVTELEDKFDLLVDTNDVILERVGMLLDEASGVNKHQQPVLPAGLQVPKTIVSSWNRKAGEYGKKAKSETFRLLHAKNIVRPQLRFREKIDNSNTPFLPKIFVKPNARKPLPLALSKERRERPQDRPEDLDVPPALADFIHQQRTQQVEQDMFAHPYQYELDHFTPPQSVLQRPKPQLYRAVGETPCHLVSSLDELVELNEKLLGCQEFAVDLEHHSYRSFLGLTCLMQISTRTEDFIVDTLELRSDMYILNESLTDPAIVKVFHGADSDIEWLQKDFGLYVVNMFDTHQAARLLNLARHSLDHLLRLYCGVESNKQYQLADWRIRPLPEEMLSYARDDTHYLLYIYDRMRLELWERGNHQPVQLQVVWQRSRDICLKKFVKPIFTDESYLELYRKQKKHLNSQQLTAFQLLFAWRDKTARREDESYGYVLPNHMMLKIAEELPKEPQGIIACCNPVPPLVRQQINEMHLLIQQAREMPLLKSENAAGVRKSGPLPSAERLENDLFGPHDCSHAPPDNYQNTSTDGTLPLQKQPSLFTEGKEETSVDAGCLLATAVITLFSEPNTEEGGKTPLTVAQKKAQNIMQSFENPFRMFLPSLEHKAHISQAAKFDPSSKIYEISNRWKLASQVQVQKEPKEATKKKVAEQTAAREEAKEEAAAGVLEQAIPVRQQAALENATKKRERATSDLRTIEQKQEKKRLKSSKKAKDPDPPGKDFSPYDYSQSDFRAFAGDSKSKPSSQFDPNKLAPSGKKGVGAKKCKQSVGNKSMSFAVGKSDRGFRHNWPKR

Assays:
[1] = target: nucleolin (endogenous NCL) (mouse (endogenous in RAW 264.7)) (UniProt P09405); assay: co-IP; unstimulated RAW 264.7 cells (no LPS); lysed with 1% digitonin; protein G-Sepharose; immunoblot
[2] = target: nucleolin (endogenous NCL) (mouse (endogenous in RAW 264.7)) (UniProt P09405); assay: co-IP; RAW 264.7 cells stimulated with LPS; lysed with 1% digitonin; protein G-Sepharose, washed with 0.1% digitonin; immunoblot
[3] = target: nucleolin (endogenous NCL) (mouse (endogenous in RAW 264.7)) (UniProt P09405); assay: co-IP; unstimulated RAW 264.7 cells (no LPS); lysed with 1% NP-40; protein G-Sepharose; immunoblot
[4] = target: nucleolin (endogenous NCL) (mouse (endogenous in RAW 264.7)) (UniProt P09405); assay: co-IP; RAW 264.7 cells stimulated with LPS for 12 h in the presence of okadaic acid (OA, 20 nM); lysed with 1% NP-40; immunoblot
[5] = target: nucleolin (endogenous NCL) (mouse (endogenous in RAW 264.7)) (UniProt P09405); assay: co-IP; RAW 264.7 cells stimulated with LPS for 12 h; lysed with 1% NP-40; protein G-Sepharose, washed with 0.1% NP-40; immunoblot

| Molecule | binding [1] | binding [2] | binding [3] | binding [4] | binding [5] |
| --- | --- | --- | --- | --- | --- |
| Rrp43, core exosome component (from UniProt Q9D753 1-276) | no binding (condition: unstimulated cells (without LPS)) | binds | – | – | – |
| Rrp46, core exosome component (from UniProt Q9CRA8 1-235) | no binding (condition: unstimulated cells (without LPS)) | binds | – | – | – |
| B1 | – | – | no binding (condition: unstimulated cells (without LPS)) | binds weakly | binds |
